Test results: PubChem BioAssay AID624418 (National Center for Advancing Translational Sciences (NCATS), 2012)
The whole screen tested about 410,000 compounds, of which about 530 (0.13%) were called active. Inconclusive means that the source gave no clear call. Such entries were picked first, then a sample of the others. The call rests on the fitted dose curve; in most records, active means well fitted inhibition curve with a large enough effect; inconclusive means small, poorly fitted or top-dose-only effect, or another doubt; inactive means no such curve, though single readings can be large or run the other way. Potencies of inconclusive entries are doubtful fits and often do not repeat.

Assay: qHTS of GLP-1 Receptor Inverse Agonists: Cytotox Screen
Conditions: HEK293 cAMP-luciferase reporter cells, luminescence, 24 h; activity change, negative = inhibition: at 38.3 µM (top of the series) unless noted
Outline: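 Here, cytotoxicity is scored as loss of luminescence. The MLSMR collection was tested on cells seeded in medium containing 10% Nu serum, with a 24 hr compound exposure preceded by 12 hours of culture.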
On the % scale 0 is the no-effect control and ±100 the full control effect; potency means the concentration at half of the fitted maximal effect.

Row | Compound | Potency | activity change, negative = inhibition
1 | CCc1ccc(/C=N/NC(=O)c2cc(C3CC3)nc3ccccc23)s1 | inconclusive: 3.98 µM [inhibitor, partial curve, poor fit] | –
2 | C/C(=N\NC(=O)CCCNc1ccc(C)cc1)c1ccccn1 | inconclusive: 3.55 µM [inhibitor, partial curve, poor fit] | –
3 | Cc1cc(C)nc(NN=C(c2ccccc2)c2ccccc2)n1 | inconclusive: 8.91 µM [inhibitor, partial curve, poor fit] | –
4 | COc1ccc(-c2c([C@H]3[C@H]4C=CC[C@@H](C)[C@@H]4C(=O)N3Cc3ccccc3)ccc3ccccc23)cc1 | inconclusive: 5.62 µM [inhibitor, partial curve] | –
5 | CCOC(CNCc1cc(C)c2[nH]c3ccccc3c2c1C)OCC | inconclusive: 28.2 µM [inhibitor, single point] | –
6 | O=C1Nc2ccccc2/C1=C\C(=O)c1ccccc1 | inconclusive: 14.1 µM [inhibitor, partial curve, poor fit] | –
7 | O=C1CCCN1CCCNc1nc(NCc2cccs2)nc2ccsc12 | – | inactive: 0.485%
8 | COc1ccc(C(=O)Nc2ccc(O)c3ccccc23)cc1OC | inconclusive: 28.2 µM [inhibitor, single point] | –
9 | COc1ccc(-c2cc(C(F)(F)F)n3nc(C)c(-c4ccccc4)c3n2)cc1OC | – | inactive: 2.1%
10 | CCOc1ccc(-c2nc(CN3CCCCC3CCn3cccn3)c(C)o2)cc1 (centres undefined) | inconclusive: 28.2 µM [inhibitor, single point] | –
11 | Cc1onc(-c2ccccc2Cl)c1C(=O)NCc1ccccc1F | – | inactive: -4.68%
12 | OCCN1CCN(C2CCC(c3ccc(F)cc3)c3ccc(F)cc32)CC1 (centres undefined) | inconclusive: 12.6 µM [inhibitor, single point] | –
13 | Cc1ccc(NC(=S)NC(=O)c2ccc(F)cc2)cc1S(=O)(=O)Nc1ccccc1Cl | inconclusive: 28.2 µM [inhibitor, single point] | –
14 | Cc1cccc(N2CCN(C(=O)CCn3c(=O)[nH]c4ccsc4c3=O)CC2C)c1 (centres undefined) | – | inactive: -12.9%
15 | Cc1cccc(Cc2c(C)nc3nc(SCC(=O)NCc4ccccc4)nn3c2C)c1 | inconclusive: 28.2 µM [inhibitor, single point] | –
16 | COc1cccc(CNC(=O)CN(c2ccc(C(C)C)cc2)S(=O)(=O)c2c(C)noc2C)c1 | inactive | –
17 | CCOC(=O)c1sc(NC(=O)c2cc3nc(-c4ccccc4)cc(C(F)(F)F)n3n2)c(C(=O)OCC)c1C | – | inactive: 3.48%

Row | Compound | Potency | activity change, negative = inhibition
18 | O=C1NC2c3c(I)sc(I)c3C(=O)C2O1 (centres undefined) | inconclusive: 28.2 µM [inhibitor, single point] | –
19 | CCOC(=O)C1(CCOc2ccccc2)CCN(Cc2nccn2CC)CC1 | inconclusive: 11.2 µM [inhibitor, partial curve, poor fit] | –
20 | COc1cc(OC)c2c(-c3cccc(-c4ccc(OC)c(F)c4)c3)cc(=O)oc2c1 | inconclusive: 0.631 µM [inhibitor, full curve, poor fit] | –
21 | NS(=O)(=O)c1ccc(N/N=C/c2ccc[nH]2)c([N+](=O)[O-])c1 | inconclusive: 8.91 µM [inhibitor, partial curve] | –
22 | COc1ccccc1NC(=O)CSc1n[nH]c(Cc2ccccc2)n1 | – | inactive: -6.61%
23 | COc1ccc(/C(N)=N/OC(=O)c2cccs2)cc1OC | – | inactive: -4.79%
24 | CCOc1ccc(CCNC(=O)/C=C/c2ccco2)cc1OCC | – | inactive: 0.745%
25 | CSc1nc2ccccc2cc1/C=C(\C#N)c1cccc(C)c1 | inconclusive: 6.31 µM [inhibitor, partial curve, poor fit] | –
26 | CCOC(=O)Cc1csc(NC(=O)NC2(C(F)(F)F)Oc3cc(Cl)c(Cl)cc3O2)n1 | inconclusive: 7.08 µM [inhibitor, partial curve, poor fit] | –
27 | COc1ccc(/C=C2\SC(=S)N(CC(=O)N3CCN(C)CC3)C2=O)cc1 | inconclusive: 4.47 µM [inhibitor, full curve] | –
28 | CCCCOc1cccc(C(=O)N(Cc2cccs2)c2ccc(OC)cc2)c1 | – | inactive: -28.7%
29 | O=C1C=CC(=O)N1Cc1ccccc1 | – | inactive: -2.27%
30 | CCCCN(CCCC)C(=O)C1CCN(S(=O)(=O)c2cccc3nsnc23)CC1 | – | inactive: -6.21%
31 | COc1ccc(NC(=O)C2Cc3c(-c4cccc(NC(C)=O)c4)ccnc3O2)cn1 (centres undefined) | inconclusive: 7.94 µM [inhibitor, partial curve, poor fit] | –
32 | Cc1ccccc1CN1C(=O)c2ccccc2Sc2ccc(C(=O)NC3CCCC3)cc21 | – | inactive: -9.77%
33 | O=C(c1ccc([N+](=O)[O-])cc1)N1CCSC1c1ccccc1Cl (centres undefined) | inconclusive: 28.2 µM [inhibitor, single point] | –
34 | CN1CCN(c2ccc(S(=O)(=O)N3CCCCC3)cc2NC(=O)COc2cccc(Cl)c2)CC1 | inconclusive: 28.2 µM [inhibitor, single point] | –
